{"source": "PubChem BioAssay AID588855", "about": "(National Center for Advancing Translational Sciences (NCATS), 2011)", "note": "Where “and” joins values, the source holds several entries; their conditions need not be identical. Identical values can stand only once. Hit rate of the full screen: of about 410,000 compounds, about 5,000 (1.2%) were called active. The inconclusive results got no clear call from the source; some entries with a clear call stand among them for comparison. Calls come from the whole dose curve; as a rule, active = well fitted inhibition curve with a large enough effect; inconclusive = small, poorly fitted or top-dose-only effect; inactive = no such curve, though single readings can be large or run the other way. Potencies of inconclusive entries are doubtful fits and often do not repeat. % is set by controls: 0 for no effect and ±100 for the full control effect; potency is the fitted concentration of half-maximal effect; tags give direction and shape of the fitted curve."}
{"assay": "qHTS for Inhibitors of TGF-b; note: nearly all actives have a fitted effect of over 65% in size", "details": "HepG2 CAGA-GFP TGF-b/SMAD3 reporter, GFP fluorescence, 18 h, TGF-beta stimulated, 500 pg/mL final; series mostly up to 46.1 µM; activity, negative = inhibition: at the top concentration", "in_short": "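Cell-based qHTS in HEPG2 carrying a CAGA-GFP Smad reporter; compounds added before 500 pg/mL final TGF-beta, 18 h incubation at 37 degrees C, GFP fluorescence quantified per cell by imaging cytometry.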"}
{"compound": "COc1ccc(NC(=S)N(Cc2ccc(C(=O)O)cc2)Cc2ccc(OC)c(OC)c2)cc1", "Potency": "inconclusive: 5.62 µM [inhibitor, single point]"}
{"compound": "Cc1ccc(C(=O)Cn2nnc3ccccc32)cc1C", "Potency": "inconclusive: 3.16 µM [inhibitor, single point]"}
{"compound": "Cc1ccc(C(NC(=O)N2CCOCC2)=C(Cl)Cl)cc1F", "Potency": "inconclusive: 11.2 µM [inhibitor, partial curve, poor fit]"}
{"compound": "CCCCCc1cc(OC)cc2c1C(=O)OC(C)(C)O2", "activity, negative = inhibition": "inactive: -1.57%"}
{"compound": "CNc1ncnc2c1ncn2[C@@H]1O[C@H](CO)[C@@H](O)[C@H]1O", "Potency": "inconclusive: 20 µM [inhibitor, partial curve, poor fit]"}
{"compound": "CCOCCCNC(=O)c1ccc(-n2c(-c3ccccc3)cc3c2CCCCC3)cc1", "Potency": "inconclusive: 7.94 µM [inhibitor, partial curve, poor fit]"}
{"compound": "CN(C)CCN(Cc1ccco1)C(=O)c1oc2ccccc2c1NC(=O)c1cccc(F)c1", "Potency": "inconclusive: 35.5 µM [inhibitor, single point]"}
{"compound": "CN(C(=O)COC(=O)CNC(=O)C12CC3CC(CC(C3)C1)C2)c1ccccc1", "Potency": "inconclusive: 35.5 µM [inhibitor, single point]"}
{"compound": "CCOC(=O)N1CCN(c2ccc(C(=O)CC)cc2F)CC1", "activity, negative = inhibition": "inactive: 28.7%"}
{"compound": "CCN(CC)c1ccc(NC(=O)COC(=O)Cc2ccsc2)cc1", "Potency": "inconclusive: 3.16 µM [inhibitor, partial curve, poor fit]"}
{"compound": "CN(C)CCCNc1cc(C(C)(C)C)nc2c(-c3ccccc3)cnn12", "Potency": "inconclusive: 20 µM [inhibitor, single point]"}
{"compound": "COc1ccc2c(c1)c1c(c(=O)n(Cc3ccccc3)c(=O)n1CC(=O)NCc1ccccc1)n2C", "activity, negative = inhibition": "inactive: 12%"}
{"compound": "Cc1cccc(NC(=S)N2CCN(Cc3ccc4c(c3)OCO4)CC2)c1C", "Potency": "inconclusive: 35.5 µM [inhibitor, single point]"}
{"compound": "CCOC(=O)c1ccc(N=c2sc(C(=O)OC)cc(=O)n2-c2ccc(C(=O)OCC)cc2)cc1", "Potency": "inconclusive: 35.5 µM [inhibitor, single point]"}
{"compound": "Cc1cc2c(n1-c1ccc(Cl)cc1)CC(C)(C)CC2=O", "activity, negative = inhibition": "inactive: -31.8%"}
{"compound": "Cc1ccc(CNC(=O)c2cc3c(s2)-c2c(C)cccc2OC3)cc1", "Potency": "inconclusive: 8.91 µM [inhibitor, partial curve, poor fit]"}
{"compound": "CS(=O)(=O)N(Cc1ccc(Cl)cc1)c1ccc(C(=O)N2CCN(c3ccccc3)CC2)cc1", "Potency": "inconclusive: 8.91 µM [inhibitor, partial curve, poor fit]"}
{"compound": "Cc1cccc(NC(=O)C2CCN(c3cnccn3)CC2)c1", "Potency": "inconclusive: 0.112 µM [inhibitor, full curve]"}
{"compound": "COc1ccc(CC(=O)Nc2ccc3nc(N4CCCCC4)cc(C)c3c2)cc1", "Potency": "inconclusive: 17.8 µM [inhibitor, single point]"}
{"compound": "O=C(NNC(=O)C1CCN(S(=O)(=O)c2ccccc2)CC1)c1ccccc1O", "activity, negative = inhibition": "inactive: -2.05%"}
{"compound": "CCOc1ccc(Oc2cc(NC(=O)c3ccco3)cc([N+](=O)[O-])c2)cc1", "Potency": "inconclusive: 35.5 µM [inhibitor, single point]"}
{"compound": "COc1ccc(NC(=S)Nc2ccc(F)cc2)c(OC)c1", "activity, negative = inhibition": "inactive: -13.9%"}
{"compound": "CCOc1ccccc1C1N=C(c2ccc(OC)cc2)CC(c2ccccc2O)N1", "note": "(centres undefined)", "Potency": "inconclusive: 22.4 µM [inhibitor, single point]"}
{"compound": "CC1CCN(c2nc(-c3ccccc3O)nc3ccccc23)CC1", "activity, negative = inhibition": "inactive: -1.01%"}
{"compound": "CCN(CC)S(=O)(=O)c1ccc2c(c1)N(CC(=O)NCCCN1CCN(c3cc(Cl)ccc3C)CC1)C(=O)CO2", "Potency": "inconclusive: 20 µM [inhibitor, single point]"}
{"compound": "Cc1cccc(Cn2c(SCc3ccc(C(=O)NC4CCCC4)cc3)nc3ccncc32)c1", "Potency": "inconclusive: 35.5 µM [inhibitor, single point]"}
{"compound": "Cc1ccc(S(=O)(=O)N2CCN=C2SC(C)c2ccccc2)cc1", "note": "(centres undefined)", "Potency": "inconclusive: 12.6 µM [inhibitor, single point]"}
{"compound": "Cc1c(-c2n[nH]c(=S)n2-c2ccc(Br)cc2)nnn1-c1ccc(Cl)cc1", "activity, negative = inhibition": "inactive: -0.402%"}
{"compound": "O=C(Cn1nnc(-c2ccc(CN3CCOCC3)cc2)n1)Nc1nc(-c2ccccc2)cs1", "Potency": "active: 12.6 µM"}
{"compound": "CCOc1ccc(NC(=O)CCc2c(C)nc3cc(-c4ccc(Cl)cc4)nn3c2C)cc1", "activity, negative = inhibition": "inactive: 8.43%"}
{"compound": "CC(C)CNS(=O)(=O)c1ccc(N2CCCCS2(=O)=O)cc1", "activity, negative = inhibition": "inactive: 0.0019%"}
{"compound": "Cc1ccc(CNC(=O)CS(=O)(=O)Cc2nc(-c3ccccc3C)oc2C)cc1", "Potency": "inconclusive: 14.1 µM [inhibitor, partial curve]"}
{"compound": "CC1CN(C(=S)Nc2cccc([N+](=O)[O-])c2)CC(C)O1", "note": "(centres undefined)", "activity, negative = inhibition": "inactive: -17.7%"}
{"compound": "COc1ccc(C(=O)NCCCNC(=O)c2ccccn2)cc1Br", "activity, negative = inhibition": "inactive: 0%"}
{"compound": "CCOC(=O)c1ccc(NC(=O)Cn2nnc3ccccc32)cc1", "activity, negative = inhibition": "inactive: -8.35%"}
{"compound": "Oc1ccc(NCc2ccc(OCc3ccccc3)cc2)cc1", "Potency": "active: 8.91 µM and active: 15.8 µM"}
{"compound": "CCOc1ccc(CC(=O)N2CCc3cc(OC)c(OC)cc3C2COc2ccc3c(C)cc(=O)oc3c2)cc1", "note": "(centres undefined)", "activity, negative = inhibition": "inactive: 6.08%"}
{"compound": "Cc1ccc2cc(CCl)c(Cl)nc2c1", "activity, negative = inhibition": "inactive: -2.46%"}
{"compound": "CCCn1cnc2cc(NCc3ccc(OC)cc3OC)ccc21", "Potency": "inconclusive: 22.4 µM [inhibitor, single point]"}
{"compound": "CC1=CCC2C(=O)N(c3cccc(C(=O)N(C)C4CCCCC4)c3)C(=O)C2C1", "note": "(centres undefined)", "activity, negative = inhibition": "inactive: 0%"}
{"compound": "Cc1c(C)c2ccc(OC(C)C(=O)NCCc3c[nH]c4ccccc34)cc2oc1=O", "note": "(centres undefined)", "activity, negative = inhibition": "inactive: 33%"}
{"compound": "O=C(NC1CCCCC1)c1csnn1", "activity, negative = inhibition": "inactive: -3.24%"}
{"compound": "Cn1c(SCC(=O)N2CCN(c3cccc(Cl)c3)CC2)nnc1-c1ccncc1", "Potency": "inconclusive: 3.16 µM [inhibitor, single point]"}
{"compound": "CCOC(=O)N1CCC(NC(=O)C2CCCN(Cc3nc(-c4cccc(C)c4)oc3C)C2)CC1", "note": "(centres undefined)", "Potency": "inconclusive: 11.2 µM [inhibitor, partial curve]"}
{"compound": "COCCN(CC(=O)Nc1cccc(C)c1C)C(=O)C1CCN(S(=O)(=O)c2ccccc2)CC1", "Potency": "inconclusive: 35.5 µM [inhibitor, single point]"}
{"compound": "CCCCNc1c(-c2cccc(SC(C)CC)c2)nc2ccc(Cl)cn12", "note": "(centres undefined)", "Potency": "inconclusive: 11.2 µM [inhibitor, single point]"}
{"compound": "COc1ccc(CCNC(=O)c2cn(C)c3ccc(S(=O)(=O)N(C)C)cc3c2=O)cc1OC", "Potency": "inconclusive: 5.62 µM [inhibitor, single point]"}
{"compound": "CCN(C(=O)c1cn(CC(C)C)c(=O)c2cc(OC)c(OC)cc12)c1cc(OC)ccc1OC", "Potency": "inconclusive: 8.91 µM [inhibitor, partial curve, poor fit]"}
{"compound": "O=C(N/N=C/c1ccccc1)c1cccc2ccccc12", "activity, negative = inhibition": "inactive: -4.46%"}
{"compound": "Cc1nc(NCCc2ccc(F)cc2)c(C#N)c(C)c1[N+](=O)[O-]", "activity, negative = inhibition": "inactive: 2.54%"}
{"compound": "CSc1ccc(CCNC(=O)c2cc3cc(S(=O)(=O)N4CCCCC4)ccc3n2C)cc1", "Potency": "inconclusive: 1 µM [inhibitor, full curve, poor fit]"}
{"compound": "COc1ccc(CNc2nc(SCc3ccccc3Cl)nc3ccccc23)cc1", "Potency": "inconclusive: 6.31 µM [inhibitor, single point]"}
{"compound": "COc1ccc(S(=O)(=O)N2CCC(C(=O)NCCc3ccccc3)CC2)cc1OC", "Potency": "inconclusive: 10 µM [inhibitor, partial curve]"}
{"compound": "C=CCN1c2ccccc2[C@]23C[C@@H](C(=O)OC)N(C(=O)C4CCC4)C2=NC(C(=O)OC)=C(C(=O)OC)[C@H]13", "Potency": "inconclusive: 11.2 µM [inhibitor, single point]"}
{"compound": "C/C(=N\\Nc1nncc2ccccc12)c1ccc(O)cc1", "activity, negative = inhibition": "inactive: 0.742%"}
{"compound": "CCC(NC(=S)NCc1ccc(F)cc1)c1ccc(C)cc1", "note": "(centres undefined)", "Potency": "inconclusive: 17.8 µM [inhibitor, single point]"}
{"compound": "Fc1cccc(NC(=S)N2CCCCC2)c1", "Potency": "inconclusive: 5.62 µM [inhibitor, single point]"}
{"compound": "CN(CC(=O)NCCc1ccc(S(N)(=O)=O)cc1)CC(=O)Nc1ccccc1C(F)(F)F", "Potency": "inconclusive: 0.562 µM [inhibitor, full curve, poor fit]"}
{"compound": "O=C(Nc1cccc(Cl)c1)C1CCCN(c2ncnc3c2nc2n3CCCCC2)C1", "note": "(centres undefined)", "Potency": "inconclusive: 22.4 µM [inhibitor, single point]"}
{"compound": "Fc1ccc2nc(Nc3nc4cc5c(cc4s3)OCCO5)sc2c1", "Potency": "inconclusive: 8.91 µM [inhibitor, partial curve, poor fit]"}
{"compound": "Cc1cc(F)ccc1NC(=O)CS(=O)(=O)c1cccc2nsnc12", "activity, negative = inhibition": "inactive: -0.195%"}
{"compound": "COc1ccc(CCNC(=O)C(C(=O)c2ccccc2)n2cc(Cl)ccc2=O)cc1OC", "note": "(centres undefined)", "Potency": "inconclusive: 25.1 µM [inhibitor, single point]"}
{"compound": "CCc1nc2ccc(C(=O)NCCOc3ccc(OC)cc3)cn2c1N(CC)CCOC", "Potency": "inconclusive: 4.47 µM [inhibitor, full curve, poor fit]"}
{"compound": "CCc1nc2c(OCc3ccc(F)cc3)cccn2c1N(C)C(=O)c1ccco1", "activity, negative = inhibition": "inactive: -13.2%"}
{"compound": "Cc1ccc(SC2=C(N(C)C)C(=O)c3ccccc3C2=O)cc1", "Potency": "active: 10 µM"}
{"compound": "CCOC(=O)c1ccc(NC(=O)Cn2ncc(Cl)c(Cl)c2=O)cc1", "Potency": "inconclusive: 22.4 µM [inhibitor, single point]"}
{"compound": "Cc1cccc(CC(=O)NCc2nc3cccnc3n2Cc2ccc(F)cc2)c1", "Potency": "inconclusive: 17.8 µM [inhibitor, partial curve, poor fit]"}
{"compound": "CCc1cc(=O)[nH]c(SCc2nc(-c3ccccc3)no2)n1", "Potency": "inconclusive: 35.5 µM [inhibitor, single point]"}
{"compound": "O=C(c1ccc([N+](=O)[O-])o1)N1CCN(Cc2ccccc2)CC1", "Potency": "inconclusive: 35.5 µM [inhibitor, single point]"}
